Measurements from patent publication US20170281768A1 (COVAGEN, published 2017).

Target: T1, HER2 on HER2-expressing human tumor cells (SKOV-3, BT-474, NCI-N87, MCF-7) (human, UniProt P04626)
T1 construct: Endogenous HER2 of human tumor cell lines; also called HER2/neu; ErbB-2
Assay: FACS on HER2-overexpressing BT-474 cells; 300 nM G10 (myc-His tagged) plus 20 nM mouse anti-myc 9E10, detected with anti-mouse IgG-Alexa488; preblock with 1 uM anti-HER2 antibody 1, anti-HER2 antibody 2 or PBS

- binding result: binds
B1: Fyn SH3-derived polypeptide G10 (designed binder)
chain: GVTLFVALYDYEARDSMGGQDLSFHKGEKFQILKRWRGGDWWEARSLTTGETGYIPSNYVAPVDSIQGEQKLISEEDLHHHHHH
notes: Expressed in E. coli from pQE12
